In the supplement of paper PMC11417369:
This is one part of the list.

system: PF3D7_0420300 AP2 domain 1 (GST-tagged); test: gcPBM binding intensity (ln(normalized median fluorescence intensity)); higher = stronger DNA binding
Summary of the method: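 The highest Masliner-normalised natural-log median intensity across replicate spots of either probe orientation is reported as binding intensity. GST-tagged P. falciparum DNA-binding domains expressed in E. coli were applied for 1 h to an Agilent 4 × 180k array of primer-extended double-stranded 36-bp intergenic genomic probes plus negative controls, and bound protein was detected with Alexa488 anti-GST antibody and scanned at 488 nm.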

Sequence | gcPBM binding intensity (ln)
TTATATTTCAATCATATTGTCACAAGTCATATTTAT [GTGCAC_negctrl_site366] | 9.13
AACAAAAAAAAAAAAAAAAAAAAAAAAAAAAAAATG [CACACA_negctrl_site1127] | 8.9
ATGGACAAGTTAAACGCACACAAATATATACACCCA [CACACA_site8478] | 9.71
AATAAAAAAAATAGCATACACACATATATACATATA [CACACA_site659] | 9.72
TATATATATATGTGCGTGCACGTTACCTTGCTGTTT | 9.36
TTTCCAAATACAACTACACACAAACAAAAGTTATAT [CACACA_site6544] | 9.8
AAATTTAACAACTTCAAACACACAATATATATATAT [CACACA_site2092] | 9.53
ATTAAATGTTATATTTGTACATATTATATATATATA [XGTACX_site5095] | 9.35
TCCATATTTGTTCACACACACACATATTTATATATA [CACACA_site3570] | 10.2
TTTGTTATTTTTTATTGTACTTTTTTTCTTTCATAA [XGTACX_site4302] | 9.52
TTCATTTTTTATTATAGTACACATAATATTTGCAGA [XGTACX_site4032] | 9.14
TTTTTTAAATGTATTAAAATTATATATATATATATA [GTGCAC_negctrl_site570] | 8.93
ATACATAAATTTAGAAGTACATAACAAATTTTTAAA [XGTACX_site7448] | 9.14
AATCAAAACAACAATAGTACATAAAAAAACAAAACA [XGTACX_site4181] | 9.91
TGCAGTCTGGAGAAACGTACATAGTATCTGGTAGCT [XGTACX_site4937] | 9.27
ATACATAAATATATATGTACATATATATATATATAT [XGTACX_site1055] | 9.17
AAAATATATTTAAATTGTACACGTTACCATAACAAT [XGTACX_site2598] | 9.25
CTTTTTATTTAGAACACACACAAAAAAAAAAAAAAA [CACACA_site1761] | 8.96
ATGAATACAAAATTATACAAAATTATCAAAAGTATG [CACACA_negctrl_site1453] | 9.31
AGGTTCTTTTTAAATGGTACACATAATTTGAAGATA [XGTACX_site400] | 9.13
GTGTATAGAATGGTTTCTTTTAAGGTTTTTATTTTT [CACACA_negctrl_site564] | 9.6
TCTTAAAAGGGGAATGGAATGGAGAAAATGAAATAA [GTGCAC_negctrl_site30] | 9.03

Sequence | gcPBM binding intensity (ln)
ATACCCACTTAAAATACACACACACCGAAAAAAAAA [CACACA_site8867] | 9.98
ATATATTAATAATTTTGTACGCATTTCCTTTTTATT [XGTACX_site1638] | 9.55
AAAAAAAAAAAAAAATGTACAAATAAAGAAATATGA [XGTACX_site4371] | 9.38
GAAAATATTTCCGTATGTACTTATTTTAGTCTACTA [XGTACX_site471] | 9.33
AATATTTTCTTGTACGCATGCACATCCAAATTATAT [TGCATGCA_site873] | 9.37
TGACCTGTTCAGGTAACACACATATAAACACATACA [CACACA_site4186] | 9.6
TTTCTTTTTTTTTGAAGTACATAAAAATATAAAAAA [XGTACX_site311] | 8.66
ATATATATATGTATGTATATATATATATATATGTTT [CACACA_negctrl_site248] | 9.35
AATATTATAAAATATTGTACTTAAAAAATTATTAAA [XGTACX_site2469] | 8.73
TAAATTTTTTCTTTTTGTACATATTTTAAAAATGTT [XGTACX_site7526] | 9.09
AAAAAGAAAAAGAGCACACAAAAATATTTAACCTTT [CACACA_site2747] | 9.7
ATGGCATAAATATATGCACACACAAAAAAAAAAAAA [CACACA_site7902] | 9.43
TATATATATATAATATGTACATATATACATGCCTTG [XGTACX_site2791] | 9.15
TACACTAATGACAGTTGTACTTTTATTCGATAGAAT [XGTACX_site738] | 9.05
TCGAAAATGACGAATGGTACAGTATGTATAAAAATA [XGTACX_site1258] | 9.27
ACTTTTTTTTTGTGTGTGCACTCGATTATATACATA [GTGCAC_site9846] | 10
TATATATACATACGTACACACAAATATTAAAATATA [CACACA_site1951] | 9.5
TCAAAATTGCTTTGTTGTACTAATAAAATTTATTAC [XGTACX_site1121] | 9.13
TATCTGTAAACATATTCACACACATAAATTCGCATA [CACACA_site8557] | 9.75
GATAAATATTTAATATGTACATATATTATATATATA [XGTACX_site117] | 9.08
GTTATATATGATGGAAGCACTTGGAAGAGGGAAATA [CACACA_negctrl_site1831] | 9.44
AAAAATAAAAAAATAAAAAATAAAAAAATAAAAAAT [CACACA_negctrl_site1425] | 9.57

Sequence | gcPBM binding intensity (ln)
TATATACACACCGTGTGTACATATACATTAACTGAA [XGTACX_site7120] | 9.83
ATATATTATATATGCGCACACACGAATTTTTTTTTT [CACACA_site2393] | 9.64
ATTAAAGTTATAAATTCACACATGTAAATGTATTTA [CACACA_site5279] | 9.12
TTTTATTTATCATACACACACAGAAAAAAAAAAAAA [CACACA_site158] | 9.57
GAATGTTTATTATATGCATGTTATATATATGAATAT [TGCATGCA_site4] | 9.28
CCTTTCCTTTTATAAGTGCATATAACAAATGTATAC [GTGCAC_site9872] | 9.18
AATAATGAAAAATCAAATAACCTAAATTACAACTGT [XGTACX_negctrl_site65] | 9.57
AAATACTGTACAAAGGTGCATAAAAAGTGGGGCATA | 9.74
TCAAAAGAAATAAAAACATGCATAAAAGTAAAAATA [TGCATGCA_site832] | 9.33
ACGTATATTTTTACATGTACATATGTAAAAAATTTT [XGTACX_site4587] | 9.08
TGTTTTTCATAGTGCACACATAACCAAAAATAGTAT [CACACA_site3150] | 9.41
AAATAATATATATACACACACACATATATATATACA [CACACA_site554] | 10.1
TTATGATAATTTTGCACACACTTAGGAAAAATTATG [CACACA_site4949] | 9.4
CTTATATATACGTGCACACATATATATAAGATATAT [CACACA_site1752] | 9.31
AAAAATATAAATGACACACACTTAAAAACAAAGAAA [CACACA_site4540] | 10
ATTTAAAAAAAAAAAAATAAATAACTTGAAAAACAA [GTGCAC_negctrl_site318] | 9.09
AAGGATAATAGGTACACATGCAATATTCATATATAC [TGCATGCA_site523] | 9.61
TAAATATAATAAAAGTGTACTTACACTTACATATAA [XGTACX_site1206] | 9.12
TTTCACACTATTTCATGTACACATAAAATTATATAT [XGTACX_site8692] | 9.32
AACAGATAAAAGGGTACACACATATATACATGTACA [CACACA_site225] | 9.75
TTGTATATATTTCCTTGTACGTAATAATTCTTATTG [XGTACX_site3938] | 9.39
ATATAATAAGGTTAAGCACACATATTACATATATAA [CACACA_site9110] | 9.4

Sequence | gcPBM binding intensity (ln)
TTTTATTCCGTTTCAAAATAAGAAAAAAAAAAAAAT [CACACA_negctrl_site1199] | 8.98
TACTTCTCATTTGTTGTTGTATTTTAGGCATACCCT [XGTACX_negctrl_site385] | 9.51
TATTTTAAAACAAAAATATAATTTCATAAAAATATA [CACACA_negctrl_site394] | 8.77
TAATATATATATTTATGTACATATAAATTTTCTCCT [XGTACX_site4496] | 9.19
ATAAAATAATCTTATGCACACCAAAAATTTATATAA [CACACA_site8332] | 9.28
ATATATCAAAAATGATGACATAAATATATTAATTTA [TGCATGCA_negctrl_site259] | 9.1
TTTTTGTAAAATAAACGTACAAAACAATTGTTCATT [XGTACX_site6537] | 9.12
TATCTGTATGTATGTACACACAAAAAATGGAATATA [CACACA_site5947] | 9.51
TTATATACATAAAAATGTACTTTTTATAAAATATAT [XGTACX_site8281] | 8.94
AAGTTAGTATTCTGCTGTACTTCTATATATAAGTGT [XGTACX_site7678] | 9.24
ACAACATTTCTCAAATGTACATAATATAATTTATAT [XGTACX_site3224] | 9.16
TATTAATTCTTAAATTTTTTTTTTTAATTCCTAGGA [CACACA_negctrl_site879] | 8.63
TATATATAATACAGTATGCACTATTTTTATTAAAAA | 8.88
CAATAATTTTTTAAATGTACTTTATTATAATTTAAT [XGTACX_site135] | 9.03
GCCTTCCTTCTAAATGCACACGGAAAGTATAAATGT [CACACA_site8797] | 9.45
GAATGAATCAATGTTTGTACTCAACAAATTATAAGG [XGTACX_site5122] | 9.13
GTCTAACAACCAAACGCACACACACTAATAAAAAAA [CACACA_site8026] | 9.81
TTTTCTTACATCTTATAAAAAAAAATATATATTATA [GTGCAC_negctrl_site118] | 8.77
TAAATATATAAATACACACACATACACAAAAAAAAA [CACACA_site5890] | 10.1
TATACACCCTAAAATACACACACACCCACCCATATA [CACACA_site9380] | 10.3
TATAAACCAATGAACACACAAACATATATATATATA [CACACA_site3168] | 9.79
TCTTTTTATATTTATTGTACATAAAAAATAAAACAT [XGTACX_site4073] | 9.05
